Test results published in the supplement of paper PMC4967469.
A lower IC50 marks a more sensitive line; fits outside the tested doses are given as limits. The AUC spans the tested range (256-fold, ending at the top dose) of the same fit; the more sensitive the line, the further below 1. For some assays here: Any top dose called inferred was derived from the fitted curves, not read from the paper. For some assays here: Drugs with an entry number were screened twice under separate entries, and the two screens often disagree.

What was measured:
Assay in all cases: Viability of human cancer cell lines after 72 h of drug (GDSC screen)
OSU-03012 = compound: NCC(=O)Nc1ccc(-n2nc(C(F)(F)F)cc2-c2ccc3c(ccc4ccccc43)c2)cc1 [OSU-03012]; details: top dose 16 µM; top dose inferred
Description: (§1)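 Human cancer cell lines in 384-well plates, medium with 10% serum, drug for 72 h over a 256-fold dose range (nine 2-fold or five 4-fold steps up to the top dose). Adherent lines were fixed and stained with the nucleic acid dye Syto60, suspension lines read with resazurin; signal relative to control wells, capped at 0 and 100%. One two-parameter sigmoid per drug and line, fitted in a mixed model over all curves with the slope shared within a line.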

5-Fluorouracil = compound: O=c1[nH]cc(F)c(=O)[nH]1 [5-Fluorouracil]; details: top dose 32 µM; top dose inferred
Description: as §1

JNK-9L = compound: Fc1cc(-c2ccnc(Nc3ccc(-n4cnc(N5CCOCC5)n4)cc3)n2)cc(N2CCOCC2)c1 [JNK-9L]; details: top dose 5.12 µM; top dose inferred
Description: as §1

CUDC-101 = compound: C#Cc1cccc(Nc2ncnc3cc(OC)c(OCCCCCCC(=O)NO)cc23)c1 [CUDC-101]; details: top dose 5.12 µM; top dose inferred
Description: as §1

RDEA119 = compound: COc1cc(F)c(F)c(Nc2ccc(I)cc2F)c1NS(=O)(=O)C1(C[C@H](O)CO)CC1 [RDEA119]; details: top dose 5 µM, top dose inferred
Description: as §1

AC220 = compound: CC(C)(C)c1cc(NC(=O)Nc2ccc(-c3cn4c(n3)sc3cc(OCCN5CCOCC5)ccc34)cc2)no1 [AC220]; details: top dose 1.024 µM; top dose inferred
Description: as §1

QS11 = compound: OC[C@H](Cc1ccccc1)Nc1nc(Oc2ccc3c(c2)CCC3)nc2c1ncn2Cc1ccc(-c2ccccc2)cc1 [QS11]; details: top dose 10.24 µM
Description: as §1

| Cell Line | AUC (OSU-03012) | IC50 (OSU-03012) [nM] | AUC (5-Fluorouracil) | IC50 (5-Fluorouracil) [nM] | AUC (JNK-9L) | IC50 (JNK-9L) [nM] | AUC (CUDC-101) | IC50 (CUDC-101) [nM] | AUC (RDEA119; screen: GDSC drug entry 1014) | IC50 (RDEA119; screen: GDSC drug entry 1014) [nM] | AUC (AC220) | IC50 (AC220) [nM] | AUC (QS11) | IC50 (QS11) [nM] | AUC (RDEA119; screen: GDSC drug entry 1526) | IC50 (RDEA119; screen: GDSC drug entry 1526) [nM] |
| --- | --- | --- | --- | --- | --- | --- | --- | --- | --- | --- | --- | --- | --- | --- | --- | --- |
| SJRH30 (rhabdomyosarcoma, adherent) | 0.725 | 4460 | 0.97 | > 32000 | 0.583 | 546 | 0.516 | 354 | 0.939 | > 5000 | 0.981 | > 1020 | 0.936 | > 10200 | – | – |
| SJSA-1 (bone, adherent) | 0.446 | 701 | 0.778 | 14700 | 0.466 | 255 | 0.746 | 1800 | 0.403 | 163 | 0.98 | > 1020 | 0.701 | 2540 | 0.765 | 2050 |
| SK-CO-1 (large intestine, adherent) | 0.856 | 11800 | 0.768 | 11300 | 0.624 | 687 | 0.836 | 3110 | 0.446 | 225 | 0.989 | > 1020 | 0.987 | > 10200 | 0.567 | 470 |
| SK-ES-1 (Ewing sarcoma, semi-adherent) | 0.598 | 1890 | 0.779 | 14000 | 0.613 | 671 | 0.53 | 388 | 0.947 | > 5000 | 0.925 | > 1020 | 0.768 | 4100 | 0.982 | > 5000 |
| SK-HEP-1 (liver, adherent) | 0.683 | 3130 | 0.947 | > 32000 | 0.496 | 312 | 0.575 | 504 | 0.731 | 1350 | 0.989 | > 1020 | 0.803 | 4670 | 0.818 | 2580 |
| SK-LMS-1 (soft tissue, adherent) | 0.524 | 1160 | 0.735 | 8970 | 0.569 | 488 | 0.391 | 163 | 0.696 | 1070 | 0.987 | > 1020 | 0.725 | 2690 | 0.687 | 1020 |
| SK-LU-1 (lung adenocarcinoma, adherent) | 0.642 | 2760 | 0.922 | > 32000 | 0.641 | 876 | 0.692 | 1290 | 0.881 | > 5000 | 0.98 | > 1020 | 0.9 | > 10200 | 0.723 | 1620 |
| SK-MEL-1 (melanoma, suspension) | 0.989 | > 16000 | 0.991 | > 32000 | 0.76 | 1580 | 0.728 | 1280 | 0.4 | 173 | 0.983 | > 1020 | 0.993 | > 10200 | 0.606 | 585 |
| SK-MEL-3 (melanoma, adherent) | 0.719 | 4680 | 0.91 | > 32000 | 0.651 | 901 | 0.586 | 572 | 0.56 | 469 | 0.979 | > 1020 | 0.917 | > 10200 | 0.724 | 1520 |
| SK-MEL-24 (melanoma, adherent) | 0.885 | > 16000 | 0.89 | > 32000 | 0.906 | > 5120 | 0.593 | 607 | – | – | 0.983 | > 1020 | 0.983 | > 10200 | 0.594 | 597 |
| SK-MEL-30 (melanoma, adherent) | 0.58 | 1670 | 0.842 | 24300 | 0.49 | 299 | 0.545 | 427 | – | – | 0.985 | > 1020 | 0.837 | 7390 | 0.456 | 236 |
| SK-MES-1 (lung squamous cell carcinoma, adherent) | 0.639 | 2510 | 0.912 | > 32000 | 0.395 | 161 | 0.478 | 277 | 0.718 | 1380 | 0.983 | > 1020 | 0.787 | 4880 | 0.737 | 1590 |
| SK-MM-2 (myeloma, suspension) | 0.811 | 8950 | 0.6 | 3810 | 0.702 | 1220 | 0.604 | 624 | 0.987 | > 5000 | 0.935 | > 1020 | 0.987 | > 10200 | – | – |
| SK-N-AS (neuroblastoma, adherent) | 0.838 | 13300 | 0.908 | > 32000 | 0.72 | 1500 | 0.439 | 213 | 0.607 | 645 | 0.97 | > 1020 | 0.964 | > 10200 | – | – |
| SK-N-DZ (neuroblastoma, adherent) | 0.801 | 7700 | 0.779 | 12900 | 0.778 | 2050 | 0.766 | 1870 | – | – | 0.988 | > 1020 | 0.72 | 2660 | 0.987 | > 5000 |
| SK-N-FI (neuroblastoma, adherent) | 0.877 | 15800 | 0.971 | > 32000 | 0.884 | > 5120 | 0.673 | 971 | 0.688 | 1040 | 0.977 | > 1020 | 0.989 | > 10200 | 0.909 | > 5000 |
| SK-N-SH (neuroblastoma, adherent) | 0.77 | 6050 | 0.907 | > 32000 | 0.358 | 130 | 0.536 | 401 | 0.876 | 4920 | 0.987 | > 1020 | 0.987 | > 10200 | 0.883 | > 5000 |
| SK-PN-DW (Ewing sarcoma, adherent) | 0.635 | 2400 | 0.721 | 8700 | 0.636 | 774 | 0.515 | 351 | 0.986 | > 5000 | 0.971 | > 1020 | 0.806 | – | 0.982 | > 5000 |
